Molecules are shown by their SMILES. About 550 (1.1%) of roughly 48,000 compounds were called active. Inconclusive results (about 4%) are left out. Cut-off read from the data, not from the text of the source: active = potency below about 15 µM; inconclusive = mostly about 16 µM to 33 µM; inactive = weaker than that. The list shows a part of the results.

This is an account of results in PubChem BioAssay AID360 (National Center for Advancing Translational Sciences (NCATS), 2006).
Potency is the fitted concentration of half-maximal effect.

This experiment addresses Lysosomal acid glucosylceramidase (Homo sapiens) (UniProt P04062). The experiment in a line: Glucocerebrosidase.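 Note: the screen sought inhibitors.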 The settings on record: purified enzyme, resorufin glucoside fluorescence (screen aimed at inhibitors), 20 min. The essentials: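 Compounds titrated against 0.2 nM normal enzyme, 30 uM resorufin beta-D-glucopyranoside substrate, citrate/phosphate buffer with taurocholate and tween-20, pH 5.9. Reaction ran 20 min at room temperature; fluorescence (Ex 548/Em 600) gave AC50.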
UniProt P04062, sequence (P04062 whole entry, looked up): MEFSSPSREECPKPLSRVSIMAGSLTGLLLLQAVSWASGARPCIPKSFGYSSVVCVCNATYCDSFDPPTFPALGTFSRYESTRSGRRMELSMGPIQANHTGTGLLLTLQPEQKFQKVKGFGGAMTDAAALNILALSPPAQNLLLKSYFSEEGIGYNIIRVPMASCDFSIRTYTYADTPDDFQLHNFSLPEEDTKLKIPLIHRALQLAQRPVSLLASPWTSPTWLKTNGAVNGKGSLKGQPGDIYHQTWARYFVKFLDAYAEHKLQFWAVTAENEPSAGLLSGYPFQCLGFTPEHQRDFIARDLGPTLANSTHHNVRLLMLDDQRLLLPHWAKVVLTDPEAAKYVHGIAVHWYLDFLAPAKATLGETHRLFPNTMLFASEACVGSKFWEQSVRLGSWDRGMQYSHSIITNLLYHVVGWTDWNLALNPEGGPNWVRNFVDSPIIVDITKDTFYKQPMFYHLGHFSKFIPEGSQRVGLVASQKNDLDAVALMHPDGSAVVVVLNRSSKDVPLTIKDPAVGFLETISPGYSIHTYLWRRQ
For `CCn1c(SCC(=O)Nc2cccc(NC(C)=O)c2)nnc1C(C)C`, the Potency is inactive: > 76.9 µM.
The same measure for `CCc1ccccc1N1C[C@@]23C=C[C@@H](O2)C(C(=O)OCC(C)C)[C@H]3C1=O` (stereo partly drawn): inactive: > 76.9 µM; for `O=C(NCCc1ccccn1)c1n[nH]c(=O)c2ccccc12`: inactive: > 76.9 µM.
With `Nn1c(-c2ccccn2)nnc1-c1ccccn1`, the Potency is inactive: > 76.9 µM.
As to `CC1CCCC(N2C(=O)NC(NC(=O)c3ccco3)(C(F)(F)F)C2=O)C1C` (stereo not drawn), the Potency was inactive: > 76.9 µM.
The same measure for `CCOc1ccc(NC(=O)CSc2nccn2C)cc1`: inactive: > 76.9 µM; for `Cc1cc(C)nc(SCc2nnc(SCC#N)n2-c2cccc(Cl)c2)n1`: inactive: > 76.9 µM; for `Cc1onc(-c2c(F)cccc2Cl)c1C(=O)OCC(=O)Nc1c(C)n(C)n(-c2ccccc2)c1=O`: inactive: > 76.9 µM.
With `CCN1C(=O)c2cccc3c(S(=O)(=O)Nc4nc(C)cs4)ccc1c23`, the Potency is inactive: > 76.9 µM.
Turning to `Cc1ccc2c(CC(=O)NCc3ccc4c(c3)OCO4)coc2c1`, the Potency was inactive: > 76.9 µM.
The same measure for `Cc1ccc(C(=O)NC2CCS(=O)(=O)C2)cc1S(=O)(=O)N1CCOCC1` (stereo not drawn): inactive: > 76.9 µM; for `CCN(Cc1cc2cc(C)ccc2[nH]c1=O)S(=O)(=O)c1ccccc1`: inactive: > 76.9 µM; for `Cc1nc2ccccc2c(=O)n1C1CCCCCC1`: inactive: > 76.9 µM.
Take `O=C(CN(CCCN1CCOCC1)C(=O)Cn1nnc(-c2ccc(F)cc2)n1)NC1CCCCC1`: the Potency was active: 3.96 µM.
The same measure for `O=S(=O)(N1CCOCC1)n1nnc2ccccc21`: inactive: > 76.9 µM; for `Cn1c(=O)c2ncn(CC(=O)NCCOc3ccc(C(C)(C)C)cc3)c2n(C)c1=O`: inactive: > 76.9 µM; for `COC(=O)C(CCCCN1C(=O)C2C3C=CC(C3)C2C1=O)N1C(=O)C2C3C=CC(C3)C2C1=O` (stereo not drawn): inactive: > 76.9 µM.
For `Cc1nn(C)c(C)c1S(=O)(=O)NC1CCCC1` the value was inactive: > 76.9 µM.
The same measure for `CCOC(=O)CSC1=C(C#N)C(c2ccccc2OCC)C(C#N)C(=O)N1` (stereo not drawn): inactive: > 76.9 µM; for `Cc1ccc2nc(CSc3nnc(Cc4cccs4)n3C3CCCCC3)cc(=O)n2c1`: inactive: > 76.9 µM.
Take `O=C(CSc1nc2ccccc2n1CC(=O)NCc1ccccc1)NCc1ccco1`: the Potency is inactive: > 76.9 µM.
For `COc1ccc(OC)c(S(=O)(=O)Nc2ccc(O)c(Sc3ncn[nH]3)c2)c1`, the Potency is inactive: > 76.9 µM.
The same measure for `C=CCNC(=O)C1CCCN(S(C)(=O)=O)C1` (stereo not drawn): inactive: > 76.9 µM; for `O=C(Nc1ccc(F)cc1)C1CCCCC1`: inactive: > 76.9 µM; for `Cc1nc(C)c(C(=O)C2=C(O)C(=O)N(CCN3CCOCC3)C2c2ccco2)s1` (stereo not drawn): inactive: > 76.9 µM.
Take `CCOc1ccc(S(=O)(=O)Nc2ccc(S(=O)(=O)N3CCOCC3)cc2)cc1`: the Potency is inactive: > 76.9 µM.
The same measure for `Cc1ccc(CS(=O)(=O)CCC(=O)NCCN2CCCC2)cc1`: inactive: > 76.9 µM.
Take `CCOC(=O)c1ccc(NC(=O)CC2C(=O)N(c3cccc(OC)c3)C(=O)N2CCOC)cc1` (stereo not drawn): the Potency is inactive: > 76.9 µM.
Turning to `CCS(=O)(=O)n1nc(-c2ccccc2)nc1NCc1ccco1`, the Potency was inactive: > 76.9 µM.
Regarding `Cc1cc(=O)n2nc(-c3ccccc3)sc2c1C#N`, the Potency is inactive: > 76.9 µM.
Regarding `Cc1nc2c(c(=O)n1CCC(C)C)c1nc3ccccc3nc1n2Cc1ccc2c(c1)OCO2`, the Potency was inactive: > 76.9 µM.
`COC(=O)C1=C(C)NC(C)=C(C(=O)OC)C1C(=O)OC1CCCCC1=O` (stereo not drawn): the Potency is inactive: > 76.9 µM.
For `COc1ccc(-c2nn3cnnc3s2)cc1OC` the value was inactive: > 76.9 µM; for `Cc1c(C(=O)Nc2cnccn2)oc2ccccc12`, inactive: > 76.9 µM; for `CC1Cc2ccccc2N1C(=O)Cn1nnc(-c2ccccc2NC(=O)C2CCC2)n1` (stereo not drawn), “inactive”.
Turning to `CCOc1ccc(-c2noc(CCC(=O)NC)n2)cc1OCC`, the Potency was inactive: > 76.9 µM.
For the compound `O=C(O)C1C2C=CC(C2)C1C(=O)Nc1ccc(C(=O)N2CCCCC2)cc1` (stereo not drawn), the Potency was inactive: > 76.9 µM.
For `CCN1C(=O)CC(N2CCC(Nc3ccc(OC)cc3)CC2)C1=O` (stereo not drawn) the value was inactive: > 76.9 µM; for `CCC(C)[C@H](NC(=O)Nc1ccc2c(c1)OCCO2)C(=O)O` (stereo partly drawn), inactive: > 76.9 µM; for `Brc1ccc(CSc2nnc(Cc3c[nH]c4ccccc34)o2)cc1`, inactive: > 76.9 µM.
The same measure for `COc1ccccc1-c1noc(-c2ccco2)n1`: inactive: > 76.9 µM.
For `O=C(Cn1nc(-c2cccc(Cl)c2)ccc1=O)Nc1cccnc1` the value was inactive: > 76.9 µM; for `Cc1nc2nc(SCC(=O)NCc3ccco3)nn2c(C)c1Cc1ccccc1`, inactive: > 76.9 µM.
As for `c1ccc2c3c([nH]c2c1)-c1[nH]ncc1CC3`, the Potency is inactive: > 76.9 µM.
For `CC1CCCC(C)N1C(=O)CSc1nnc(C2CCCCC2)o1` (stereo not drawn) the value was inactive: > 76.9 µM; for `O=C(Nc1ccncc1)c1cncc(Br)c1`, “inactive”; for `CN(c1ccc(C(=O)NCc2ccncc2)cc1)S(C)(=O)=O`, inactive: > 76.9 µM.
The same measure for `CCCCCCn1c(SCCCC)nc2c1c(=O)[nH]c(=O)n2C`: inactive: > 76.9 µM; for `CCN(C(=O)CN1CCN(C)CC1)c1cccc2ccccc12`: inactive: > 76.9 µM; for `CCCOc1cccc(C2/C(=C(/O)c3ccncc3)C(=O)C(=O)N2CCCN(C)C)c1` (stereo not drawn): inactive: > 76.9 µM.
For `COC(=O)CSc1nnc(CNC(=O)c2cccs2)n1-c1cccc(C)c1`, the Potency is inactive: > 76.9 µM.
In the case of `CCN(CC)CCOc1ncnc2c1oc1ccccc12`, the Potency is inactive: > 76.9 µM.
Regarding `CCN(c1ccc(OC)cc1)S(=O)(=O)c1ccc2c(c1)CCN2C(=O)CCC(=O)O`, the Potency was inactive: > 76.9 µM.
In the case of `Cc1cc2nn(-c3cccc4ccccc34)nc2cc1N`, the Potency is inactive: > 76.9 µM.
With `O=C(c1c(F)cccc1F)N(Cc1ccccn1)C1CCCC1`, the Potency was inactive: > 76.9 µM.
For `Cc1cc(C(=O)Cn2cncn2)c(C)n1CCc1ccc(F)cc1` the value was inactive: > 76.9 µM; for `CCc1ccc(NC(=O)CNS(=O)(=O)c2c(C)noc2C)cc1`, inactive: > 76.9 µM.
On to `COC(=O)[C@@H](NC(=O)Nc1ccc2c(c1)OCCO2)C(C)C`, for which the Potency was inactive: > 76.9 µM.
